# According to the supplement of paper PMC8728848:
# The other results are listed elsewhere or left out.
# Assays:
# Test in all cases: glycan array binding signal (z-score within array); higher = stronger binding
# Settings in all cases: glycan notation: IUPAC condensed, linker removed
# [1] = target: Neu5Ac(a2-3)Gal(b1-3)[Fuc(a1-4)]GlcNAc
# Outline: (§1)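 Columns mapping to the same glycan were averaged after glycan names were converted to IUPAC-condensed notation. The data come from 3228 arrays in the Consortium for Functional Glycomics database, limited to those with an available protein sequence. Binding is reported as a within-array Z-score averaged across arrays of one protein sequence and across linkers.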
# [2] = target: Neu5Ac(a2-3)Gal(b1-3)[Fuc(a1-4)]GlcNAc(b1-3)Gal(b1-3)[Fuc(a1-4)]GlcNAc
# Outline: as §1
# [3] = target: Neu5Ac(a2-3)Gal(b1-3)[Fuc(a1-4)]GlcNAc(b1-3)Gal(b1-4)[Fuc(a1-3)]GlcNAc
# Outline: as §1
# [4] = target: Neu5Ac(a2-3)Gal(b1-3)[GlcNAc(b1-6)]GalNAc
# Outline: as §1
# [5] = target: Neu5Ac(a2-3)Gal(b1-3)[Neu5Ac(a2-6)]GalNAc
# Outline: as §1
# [6] = target: Neu5Ac(a2-3)Gal(b1-3)[Neu5Ac(a2-6)]GlcNAc(b1-3)[Fuc(a1-3)[Gal(b1-4)]GlcNAc(b1-6)]Gal(b1-4)Glc
# Outline: as §1
# [7] = target: Neu5Ac(a2-3)Gal(b1-3)]Neu5Ac(a2-3)Gal(b1-4)]GlcNAc
# Outline: as §1
# Neu5Ac(a2-3)Gal(b1-4)Glc = target: Neu5Ac(a2-3)Gal(b1-4)Glc
# Outline: as §1
# [8] = target: Neu5Ac(a2-3)Gal(b1-4)GlcNAc
# Outline: as §1
# [9] = target: Neu5Ac(a2-3)Gal(b1-4)GlcNAc(b1-2)Man
# Outline: as §1
# [10] = target: Neu5Ac(a2-3)Gal(b1-4)GlcNAc(b1-2)Man(a1-3)[GlcNAc(b1-4)][Neu5Ac(a2-3)Gal(b1-4)GlcNAc(b1-2)Man(a1-6)]Man(b1-4)GlcNAc(b1-4)GlcNAc
# Outline: as §1
# [11] = target: Neu5Ac(a2-3)Gal(b1-4)GlcNAc(b1-2)Man(a1-3)[Neu5Ac(a2-3)Gal(b1-4)GlcNAc(b1-2)Man(a1-6)]Man(b1-4)GlcNAc(b1-4)GlcNAc
# Outline: as §1
# [12] = target: Neu5Ac(a2-3)Gal(b1-4)GlcNAc(b1-2)Man(a1-3)[Neu5Ac(a2-3)Gal(b1-4)GlcNAc(b1-2)Man(a1-6)]Man(b1-4)GlcNAc(b1-4)[Fuc(a1-6)]GlcNAc
# Outline: as §1
# [13] = target: Neu5Ac(a2-3)Gal(b1-4)GlcNAc(b1-2)Man(a1-3)[Neu5Ac(a2-6)Gal(b1-4)GlcNAc(b1-2)Man(a1-6)]Man(b1-4)GlcNAc(b1-4)GlcNAc
# Outline: as §1
# [14] = target: Neu5Ac(a2-3)Gal(b1-4)GlcNAc(b1-2)[Neu5Ac(a2-3)Gal(b1-4)GlcNAc(b1-4)]Man(a1-3)[GlcNAc(b1-4)][Neu5Ac(a2-3)Gal(b1-4)GlcNAc(b1-2)[Neu5Ac(a2-3)Gal(b1-4)GlcNAc(b1-6)]Man(a1-6)]Man(b1-4)GlcNAc(b1-4)GlcNAc
# Outline: as §1
# [15] = target: Neu5Ac(a2-3)Gal(b1-4)GlcNAc(b1-2)[Neu5Ac(a2-3)Gal(b1-4)GlcNAc(b1-4)]Man(a1-3)[GlcNAc(b1-4)][Neu5Ac(a2-3)Gal(b1-4)GlcNAc(b1-4)Man(a1-6)]Man(b1-4)GlcNAc(b1-4)GlcNAc
# Outline: as §1
# [16] = target: Neu5Ac(a2-3)Gal(b1-4)GlcNAc(b1-2)[Neu5Ac(a2-3)Gal(b1-4)GlcNAc(b1-6)]Man(a1-6)[Neu5Ac(a2-3)Gal(b1-4)GlcNAc(b1-2)Man(a1-3)]Man(b1-4)GlcNAc(b1-4)GlcNAc
# Outline: as §1
# [17] = target: Neu5Ac(a2-3)Gal(b1-4)GlcNAc(b1-2)[Neu5Ac(a2-3)Gal(b1-4)GlcNAc(b1-6)]Man(a1-6)[Neu5Ac(a2-3)Gal(b1-4)GlcNAc(b1-2)Man(a1-3)][GlcNAc(b1-4)]Man(b1-4)GlcNAc(b1-4)GlcNAc
# Outline: as §1
# [18] = target: Neu5Ac(a2-3)Gal(b1-4)GlcNAc(b1-3)Gal
# Outline: as §1
# [19] = target: Neu5Ac(a2-3)Gal(b1-4)GlcNAc(b1-3)Gal(b1-3)GlcNAc
# Outline: as §1
# [20] = target: Neu5Ac(a2-3)Gal(b1-4)GlcNAc(b1-3)Gal(b1-4)GlcNAc
# Outline: as §1
# [21] = target: Neu5Ac(a2-3)Gal(b1-4)GlcNAc(b1-3)Gal(b1-4)GlcNAc(b1-2)Man(a1-3)[Neu5Ac(a2-3)Gal(b1-4)GlcNAc(b1-3)Gal(b1-4)GlcNAc(b1-2)Man(a1-6)]Man(b1-4)GlcNAc(b1-4)GlcNAc
# Outline: as §1
# [22] = target: Neu5Ac(a2-3)Gal(b1-4)GlcNAc(b1-3)Gal(b1-4)GlcNAc(b1-3)Gal(b1-4)GlcNAc
# Outline: as §1
# [23] = target: Neu5Ac(a2-3)Gal(b1-4)GlcNAc(b1-3)Gal(b1-4)GlcNAc(b1-3)Gal(b1-4)GlcNAc(b1-2)Man(a1-3)[Neu5Ac(a2-3)Gal(b1-4)GlcNAc(b1-3)Gal(b1-4)GlcNAc(b1-3)Gal(b1-4)GlcNAc(b1-2)Man(a1-6)]GalNAc
# Outline: as §1
# [24] = target: Neu5Ac(a2-3)Gal(b1-4)GlcNAc(b1-3)Gal(b1-4)GlcNAc(b1-3)GalNAc
# Outline: as §1
# [25] = target: Neu5Ac(a2-3)Gal(b1-4)GlcNAc(b1-3)Gal(b1-4)GlcNAc(b1-3)[Neu5Ac(a2-3)Gal(b1-4)GlcNAc(b1-3)Gal(b1-4)GlcNAc(b1-6)]GalNAc
# Outline: as §1
# [26] = target: Neu5Ac(a2-3)Gal(b1-4)GlcNAc(b1-3)Gal(b1-4)GlcNAc(b1-6)[Gal(b1-3)]GalNAc
# Outline: as §1
# [27] = target: Neu5Ac(a2-3)Gal(b1-4)GlcNAc(b1-3)Gal(b1-4)[Fuc(a1-3)]GlcNAc
# Outline: as §1
# [28] = target: Neu5Ac(a2-3)Gal(b1-4)GlcNAc(b1-3)GalNAc
# Outline: as §1
# [29] = target: Neu5Ac(a2-3)Gal(b1-4)GlcNAc(b1-3)[Neu5Ac(a2-3)Gal(b1-4)GlcNAc(b1-6)]GalNAc
# Outline: as §1
# [30] = target: Neu5Ac(a2-3)Gal(b1-4)GlcNAc(b1-6)GalNAc
# Outline: as §1
# [31] = target: Neu5Ac(a2-3)Gal(b1-4)GlcNAc(b1-6)[Gal(b1-3)]GalNAc
# Outline: as §1
# [32] = target: Neu5Ac(a2-3)Gal(b1-4)GlcNAc(b1-6)[Neu5Ac(a2-3)Gal(b1-3)]GalNAc
# Outline: as §1
# [33] = target: Neu5Ac(a2-3)Gal(b1-4)GlcNAc6S
# Outline: as §1
# [34] = target: Neu5Ac(a2-3)Gal(b1-4)[Fuc(a1-3)]GlcNAc
# Outline: as §1
# [35] = target: Neu5Ac(a2-3)Gal(b1-4)[Fuc(a1-3)]GlcNAc(b1-2)Man
# Outline: as §1
# [36] = target: Neu5Ac(a2-3)Gal(b1-4)[Fuc(a1-3)]GlcNAc(b1-3)Gal
# Outline: as §1
# [37] = target: Neu5Ac(a2-3)Gal(b1-4)[Fuc(a1-3)]GlcNAc(b1-3)Gal(b1-4)GlcNAc
# Outline: as §1
# [38] = target: Neu5Ac(a2-3)Gal(b1-4)[Fuc(a1-3)]GlcNAc(b1-3)Gal(b1-4)[Fuc(a1-3)]GlcNAc(b1-3)Gal(b1-4)[Fuc(a1-3)]GlcNAc
# Outline: as §1
# [39] = target: Neu5Ac(a2-3)Gal(b1-4)[Fuc(a1-3)]GlcNAc(b1-3)GalNAc
# Outline: as §1
# [40] = target: Neu5Ac(a2-3)Gal(b1-4)[Fuc(a1-3)]GlcNAc(b1-6)[Gal(b1-3)]GalNAc
# Outline: as §1
# [41] = target: Neu5Ac(a2-3)Gal(b1-4)[Fuc(a1-3)]GlcNAc(b1-6)[Neu5Ac(a2-3)Gal(b1-3)]GalNAc
# Outline: as §1
# [42] = target: Neu5Ac(a2-3)Gal(b1-4)[Fuc(a1-3)]GlcNAc6S
# Outline: as §1
# [43] = target: Neu5Ac(a2-3)Gal6S(b1-4)GlcNAc
# Outline: as §1
# [44] = target: Neu5Ac(a2-3)Gal6S(b1-4)[Fuc(a1-3)]GlcNAc
# Outline: as §1
binder,measurement,setting,value
EULS2 M4 (Oryza sativa) (protein) MVYCRANPNYAMTARNGAVVLAPANPKDEYQHWIKDMRWSTSIKDEEGYPAFALVNKATGQAIKHSLGQSHPVRLVPYNPEVMDESVLWTESRDVGNGFRCIRMVNNIYLNFDAFHGDKYHGGVRDGTDIVLWKWCEGDSLRWKIQPYYILEQKLISEEDLNSAVDHHHHHH,glycan array binding signal (z-score),[1],-0.48
same,glycan array binding signal (z-score),[2],-0.27
same,glycan array binding signal (z-score),[3],-0.011
same,glycan array binding signal (z-score),[4],-0.538
same,glycan array binding signal (z-score),[5],0.3
same,glycan array binding signal (z-score),[6],-0.071
same,glycan array binding signal (z-score),[7],-0.232
same,glycan array binding signal (z-score),Neu5Ac(a2-3)Gal(b1-4)Glc,-0.331
same,glycan array binding signal (z-score),[8],0.455
same,glycan array binding signal (z-score),[9],7.63
same,glycan array binding signal (z-score),[10],-0.468
same,glycan array binding signal (z-score),[11],-0.561
same,glycan array binding signal (z-score),[12],2.46
same,glycan array binding signal (z-score),[13],-0.426
same,glycan array binding signal (z-score),[14],-0.145
same,glycan array binding signal (z-score),[15],-0.603
same,glycan array binding signal (z-score),[16],1.08
same,glycan array binding signal (z-score),[17],-0.585
same,glycan array binding signal (z-score),[18],-0.404
same,glycan array binding signal (z-score),[19],-0.471
same,glycan array binding signal (z-score),[20],0.402
same,glycan array binding signal (z-score),[21],0.289
same,glycan array binding signal (z-score),[22],-0.561
same,glycan array binding signal (z-score),[23],1.02
same,glycan array binding signal (z-score),[24],-0.346
same,glycan array binding signal (z-score),[25],-0.381
same,glycan array binding signal (z-score),[26],-0.233
same,glycan array binding signal (z-score),[27],-0.593
same,glycan array binding signal (z-score),[28],-0.508
same,glycan array binding signal (z-score),[29],-0.544
same,glycan array binding signal (z-score),[30],-0.226
same,glycan array binding signal (z-score),[31],-1.27
same,glycan array binding signal (z-score),[32],-0.589
same,glycan array binding signal (z-score),[33],4.39
same,glycan array binding signal (z-score),[34],-0.045
same,glycan array binding signal (z-score),[35],0.213
same,glycan array binding signal (z-score),[36],-0.345
same,glycan array binding signal (z-score),[37],0.35
same,glycan array binding signal (z-score),[38],0.985
same,glycan array binding signal (z-score),[39],-0.591
same,glycan array binding signal (z-score),[40],-0.235
same,glycan array binding signal (z-score),[41],-0.441
same,glycan array binding signal (z-score),[42],-0.364
same,glycan array binding signal (z-score),[43],0.205
same,glycan array binding signal (z-score),[44],-0.15
